About 16,000 (4.4%) of roughly 360,000 compounds were called active. Inconclusive means that the source gave no clear call. Such entries were picked first, then a sample of the others. Calls come from the whole dose curve; as a rule, active = well fitted inhibition curve with a large enough effect; inconclusive = small, poorly fitted or top-dose-only effect; inactive = no such curve, though single readings can be large or run the other way. Where the call is inconclusive, the potency comes from a doubtful curve fit.
What follows are compounds tested against Bromodomain adjacent to zinc finger domain protein 2B (Homo sapiens) (UniProt Q9UIF8) (assay: qHTS Assay for Inhibitors of BAZ2B). Details: AlphaScreen BAZ2B-H3K14Ac peptide displacement; activity change, negative = inhibition: at 114 µM (top of the series).
UniProt Q9UIF8, sequence (Q9UIF8 whole entry, looked up, the tested form may be a part): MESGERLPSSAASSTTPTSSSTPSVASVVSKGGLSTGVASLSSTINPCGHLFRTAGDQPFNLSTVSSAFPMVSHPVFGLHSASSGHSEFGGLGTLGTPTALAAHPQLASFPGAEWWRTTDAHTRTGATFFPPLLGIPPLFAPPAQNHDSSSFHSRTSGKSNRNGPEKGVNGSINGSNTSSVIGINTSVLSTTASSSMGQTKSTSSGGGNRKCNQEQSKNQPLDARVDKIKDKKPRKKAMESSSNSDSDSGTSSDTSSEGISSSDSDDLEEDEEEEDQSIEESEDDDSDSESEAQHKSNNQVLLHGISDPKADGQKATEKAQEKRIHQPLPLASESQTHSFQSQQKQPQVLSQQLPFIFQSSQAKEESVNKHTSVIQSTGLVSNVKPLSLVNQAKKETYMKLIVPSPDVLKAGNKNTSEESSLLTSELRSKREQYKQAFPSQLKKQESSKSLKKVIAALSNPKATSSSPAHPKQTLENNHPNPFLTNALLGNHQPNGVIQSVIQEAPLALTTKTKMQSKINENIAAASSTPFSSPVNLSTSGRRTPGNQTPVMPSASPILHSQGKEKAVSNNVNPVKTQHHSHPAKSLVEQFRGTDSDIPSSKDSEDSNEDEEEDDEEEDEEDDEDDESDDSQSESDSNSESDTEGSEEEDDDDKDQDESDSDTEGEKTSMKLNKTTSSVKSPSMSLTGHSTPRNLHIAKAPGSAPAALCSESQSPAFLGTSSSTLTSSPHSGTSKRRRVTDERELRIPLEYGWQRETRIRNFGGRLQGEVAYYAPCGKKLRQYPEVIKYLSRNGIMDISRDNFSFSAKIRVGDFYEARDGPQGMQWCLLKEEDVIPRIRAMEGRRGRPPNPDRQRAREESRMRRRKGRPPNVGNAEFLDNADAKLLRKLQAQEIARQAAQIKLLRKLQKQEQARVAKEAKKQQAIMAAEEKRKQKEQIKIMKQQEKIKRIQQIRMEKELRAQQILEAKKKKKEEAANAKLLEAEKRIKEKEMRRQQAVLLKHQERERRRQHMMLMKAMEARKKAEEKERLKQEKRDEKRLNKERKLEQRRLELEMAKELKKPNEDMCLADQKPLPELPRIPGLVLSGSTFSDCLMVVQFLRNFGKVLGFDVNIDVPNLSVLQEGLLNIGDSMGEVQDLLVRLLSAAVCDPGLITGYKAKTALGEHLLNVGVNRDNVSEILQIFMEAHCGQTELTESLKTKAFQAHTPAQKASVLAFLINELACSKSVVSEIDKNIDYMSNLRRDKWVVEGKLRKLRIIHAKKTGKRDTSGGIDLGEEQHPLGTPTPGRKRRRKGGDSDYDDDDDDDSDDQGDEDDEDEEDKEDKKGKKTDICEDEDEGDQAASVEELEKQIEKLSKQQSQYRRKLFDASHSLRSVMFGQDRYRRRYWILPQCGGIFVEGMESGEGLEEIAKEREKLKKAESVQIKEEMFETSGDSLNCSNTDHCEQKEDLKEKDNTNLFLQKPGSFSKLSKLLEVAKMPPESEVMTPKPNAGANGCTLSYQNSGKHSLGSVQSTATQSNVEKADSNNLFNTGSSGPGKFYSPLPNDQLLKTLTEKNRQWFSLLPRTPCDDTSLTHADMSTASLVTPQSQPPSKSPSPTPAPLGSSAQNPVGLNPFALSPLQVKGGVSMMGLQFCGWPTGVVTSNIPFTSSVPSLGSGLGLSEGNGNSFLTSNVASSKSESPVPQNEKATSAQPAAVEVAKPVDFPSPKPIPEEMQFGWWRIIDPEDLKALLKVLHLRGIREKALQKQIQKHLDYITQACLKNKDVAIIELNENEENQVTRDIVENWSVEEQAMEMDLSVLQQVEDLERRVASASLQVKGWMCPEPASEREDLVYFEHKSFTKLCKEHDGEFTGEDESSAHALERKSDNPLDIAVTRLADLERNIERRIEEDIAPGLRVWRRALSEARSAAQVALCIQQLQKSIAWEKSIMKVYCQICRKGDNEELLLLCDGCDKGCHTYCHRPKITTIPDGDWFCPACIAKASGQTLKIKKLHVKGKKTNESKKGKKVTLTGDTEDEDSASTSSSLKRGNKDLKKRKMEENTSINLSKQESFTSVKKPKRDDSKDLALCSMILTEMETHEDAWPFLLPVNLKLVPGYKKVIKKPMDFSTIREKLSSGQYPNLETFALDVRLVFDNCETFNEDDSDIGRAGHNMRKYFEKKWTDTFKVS
In short: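 Multi-concentration screen (max 110 uM) measuring displacement of acetylated histone H3 peptide from BAZ2B by AlphaScreen, using 50 nM protein, 50 nM peptide and 10 ug/mL streptavidin donor plus Ni-chelate acceptor beads.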
% is set by controls: 0 for no effect and ±100 for the full control effect; potency is the fitted concentration of half-maximal effect; tags give direction and shape of the fitted curve.
Note: nearly all actives have a fitted effect of over 60% in size.

| Compound | Potency | activity change, negative = inhibition |
| --- | --- | --- |
| O=C(Nc1ccc(Cl)cc1)Nc1nc(-c2ccccc2O)cs1 | inconclusive: 89.1 µM [inhibitor, partial curve] |  |
| CCCCOc1ccc(/C=N/Nc2cc(N3CCOCC3)nc(C)n2)cc1 |  | inactive: -16.2% |
| CC1(C)CC(=O)c2c(O)cc(OCC(=O)N3CCN(c4ccc(F)cc4)CC3)cc2O1 | inconclusive: 20 µM [inhibitor, full curve] |  |
| C=CCn1c(SCC(=O)c2ccc(O)c(O)c2)nnc1-c1ccccc1OC | active: 50.1 µM |  |
| O=C(c1cccc(-n2cccc2)c1)N1CCN(S(=O)(=O)c2ccc(F)cc2)CC1 | inconclusive: 79.4 µM [inhibitor, partial curve] |  |
| Nc1nc2ccccc2n1C(=O)c1ccco1 | inconclusive: 79.4 µM [inhibitor, single point] |  |
| C/C=C(\C)C(=O)NNC(=O)c1sc(-c2ccccc2)nc1C |  | inactive: 0.411% |
| CC(C)(C)C(=O)NC(=S)N1CCc2ccccc21 | inconclusive: 50.1 µM [inhibitor, partial curve] |  |
| Cc1ccc(S(=O)(=O)Nc2cccc3ncccc23)s1 | inconclusive: 89.1 µM [inhibitor, single point] |  |
| O=C(Nc1ccccc1Cl)C1CCN(c2nc3ccccc3nc2C(F)(F)F)CC1 |  | inactive: 0.863% |
| CCCN1C(=O)c2cc(C(=O)Nc3ccc(OC)cc3OC)ccc2C1Nc1ccc(OC)cc1OC (centres undefined) | inconclusive: 17.8 µM [inhibitor, full curve] |  |
| CC(C)=CCc1c(O)cc2oc3c(CC=C(C)C)c(O)c(O)c(CC=C(C)C)c3c(=O)c2c1O | active: 50.1 µM |  |
| COc1ccc(C(=O)NC(C)c2nnc(SCc3ccc(Cl)c(Cl)c3)n2C)cc1 (centres undefined) | inconclusive: 89.1 µM [inhibitor, single point] |  |
| O=C1N(Cc2ccccc2)c2ccc(Cl)cc2C1(O)c1c[nH]c2ccccc12 (centres undefined) | inconclusive: 44.7 µM [inhibitor, partial curve] |  |
| Cc1ccc(NS(=O)(=O)c2ccc3c(c2)n(C)c(=O)n3C)cc1C | inconclusive: 56.2 µM [inhibitor, partial curve, poor fit] |  |
| CCCc1cc(=O)oc2cc(OCC(=O)NCC3CCC(C(=O)O)CC3)ccc12 (centres undefined) |  | inactive: -14.2% [at 57.1 µM] |
| CN1CCN(/N=C/c2ccc(-c3ccc([N+](=O)[O-])cc3Cl)o2)CC1 | active: 28.2 µM |  |
| Cc1cnc(NC(=O)CSc2nnc3ncccn23)s1 |  | inactive: -1.6% |
| COc1ccc(-c2nc(C#N)c(NC(C)C)o2)cc1 | inconclusive: 89.1 µM [inhibitor, single point] |  |
| C=CCOC(=O)C(=O)/C=C/c1c(C)n(C)n(-c2ccccc2)c1=O |  | inactive: -3.55% |
| CN(C)c1ccc(CNC(=O)c2cccc(NC(=O)N3CCSc4ncccc43)c2)cc1 | inconclusive: 50.1 µM [inhibitor, partial curve] |  |
| Cc1sc2nc(CSc3ccccc3)nc(N3CCC(C(N)=O)CC3)c2c1C | inconclusive: 70.8 µM [inhibitor, single point] |  |
| CC1CN(c2ccccc2)C(=O)CS1 (centres undefined) | inconclusive: 89.1 µM [inhibitor, single point] |  |
| COc1cc(/C=C2/SC(=S)N(CC(=O)Nc3nc4ccccc4s3)C2=O)cc(OC)c1OC | inconclusive: 70.8 µM [inhibitor, single point] |  |
| Cn1cccc1-c1nc2ccc(NC(=O)c3cccs3)cc2[nH]1 | active: 35.5 µM |  |

| Compound | Potency | activity change, negative = inhibition |
| --- | --- | --- |
| CCCC(=O)C1=C(c2ccccc2)C(C#N)(C#N)C(C#N)=C1N | active: 50.1 µM |  |
| C=CCN1C=C2C(=O)C(C)(OC(=O)C3CCCC3)C(=O)C=C2C=C1c1ccsc1 (centres undefined) | inconclusive: 89.1 µM [inhibitor, single point] |  |
| Cc1ccc(C(=O)Nc2nnc(CC(=O)N/N=C/c3ccc(O)c(O)c3)s2)cc1 | active: 79.4 µM |  |
| CC(=O)c1ccc(OC(=O)c2nc(-c3ccccc3)oc2C)cc1 | inconclusive: 56.2 µM [inhibitor, partial curve] |  |
| CCn1nc(NS(=O)(=O)c2ccc([N+](=O)[O-])cc2)c2cc3ccccc3nc21 | inconclusive: 50.1 µM [inhibitor, partial curve] |  |
| CNc1ccc(/C=C(\C#N)c2ccccn2)cc1[N+](=O)[O-] | inconclusive: 89.1 µM [inhibitor, single point] |  |
| COc1ccc(S(=O)(=O)n2nc(-c3ccco3)nc2NCc2ccc(N(C)C)cc2)cc1 | active: 25.1 µM |  |
| Fc1ccc(Cn2nnnc2CN2CCN(C3CCCC3)CC2)cc1 | inconclusive: 89.1 µM [inhibitor, single point] |  |
| CC(C)CC1Nc2ncnc(N3CCN(c4ccccc4)CC3)c2N(Cc2ccc(Br)cc2)C1=O (centres undefined) | inconclusive: 35.5 µM [inhibitor, partial curve] |  |
| O=C(Nc1nnc(Cc2ccccc2)s1)C1CCN(C(=O)c2ccco2)CC1 |  | inactive: -13.1% |
| CCC(C)(C(=O)NC1CCCC1)N(C(=O)CC1NC(=O)NC1=O)c1ccc(C)cc1 (centres undefined) |  | inactive: 6.52% |
| CCOc1ccc(S(=O)(=O)n2cc(F)c(=O)[nH]c2=O)cc1[N+](=O)[O-] | inconclusive: 89.1 µM [inhibitor, single point] |  |
| O=S(=O)(c1ccccc1)N1CCN(S(=O)(=O)N2CCCCCC2)CC1 |  | inactive: 1.91% |
| COc1ccccc1N1CCN(C(=O)CN2C(=O)COc3ccc(S(=O)(=O)N4CCCCCC4)cc32)CC1 | inconclusive: 79.4 µM [inhibitor, single point] |  |
| CCCCNC(=S)NCc1ccc2c(c1)cc(C)n2C | active: 44.7 µM |  |
| FC(F)(F)c1ccccc1CN1CCN(C2CCCCCC2)CC1 | active: 50.1 µM |  |
| Cn1c(SCC(=O)N/N=C/C=C/c2ccco2)nc2ccccc21 | active: 44.7 µM |  |
| COc1ccc(CCN2C(=O)CC(C(N)=O)SC2=Nc2ccccc2)cc1 (centres undefined) | inconclusive: 89.1 µM [inhibitor, single point] |  |
| Cc1ccc(-c2csc(C3C(N)=NC(S)=C(C#N)C34CCCCC4)n2)cc1 (centres undefined) | inconclusive: 8.91 µM [inhibitor, full curve, poor fit] |  |
| CC(=O)c1cccc(NC(=O)C2C3C=CC(C3)C2C(=O)O)c1 (centres undefined) |  | inactive: -9.04% |
| Cc1c(CC(=O)N2CCN(C(=O)C3COc4ccccc4O3)CC2)c(=O)oc2cc(O)ccc12 (centres undefined) |  | inactive: -5.83% [at 57.1 µM] |
| CC1CCc2sc(C(=O)NCCCn3ccnc3)cc2C1 (centres undefined) | inconclusive: 28.2 µM [inhibitor, full curve] |  |
| COCCCNC(=O)/C(C#N)=C/c1c(N2CCN(c3ccccc3)CC2)nc2c(C)cccn2c1=O | inconclusive: 44.7 µM [inhibitor, partial curve] |  |
| O=S(=O)(Nc1cc(F)ccc1F)c1ccc2[nH]c3c(c2c1)CCCC3 | inconclusive: 44.7 µM [inhibitor, partial curve] |  |
| NS(=O)(=O)c1ccc(CCNc2nccn(-c3cccc(C(F)(F)F)c3)c2=O)cc1 | inconclusive: 39.8 µM [inhibitor, full curve] |  |

| Compound | Potency | activity change, negative = inhibition |
| --- | --- | --- |
| O=C(c1ccc(N2CCOCC2)nc1)N1CCCCC1 |  | inactive: -3.18% |
| N#Cc1ccccc1NC(=O)CNc1ccccc1N1CCCCC1 | inconclusive: 31.6 µM [inhibitor, full curve, poor fit] |  |
| CC(=O)N1CCC(C(=O)NCCOc2cccc(C)c2)CC1 |  | inactive: 4.65% |
| Cn1c2ccccc2c2c(C(=O)N3CCN(c4ccccn4)CC3)cn(C3CCCC3)c(=O)c21 | inconclusive: 25.1 µM [inhibitor, single point] |  |
| O=C(Nc1ccc(Cl)cn1)c1ccc([N+](=O)[O-])o1 | inconclusive: 56.2 µM [inhibitor, partial curve] |  |
| CCOC(=O)c1sc2ccccc2c1S(=O)(=O)Nc1ccc(CC)cc1 |  | inactive: 35.1% |
| COc1ccc(/C=C/CN2CCN(Cc3ccc(F)cc3)C(CCO)C2)cc1 (centres undefined) |  | inactive: -12.1% |
| CC1=Nn2c(nnc2-c2ccc(F)cc2)SC1 |  | inactive: -2.04% |
| COc1ccc(-n2ccnc(NCc3ccccc3OC)c2=O)cc1 | inconclusive: 44.7 µM [inhibitor, partial curve] |  |
| CCCNC(=S)NC1CC2CCCC(C1)N2Cc1ccc(F)cc1 (centres undefined) |  | inactive: -0.416% |
| CCc1cc(=O)oc2cc(C)c(CN3CCCC3)c(O)c12 | active: 17.8 µM |  |
| C=CCNC(=O)CN(c1cccc(Br)c1)S(C)(=O)=O |  | inactive: -5.02% |
| CN1CCN(C(c2ccccc2)c2ccc(Cl)cc2)CC1 (centres undefined) |  | inactive: 0.591% |
| O=C(O)c1ccccc1Nc1ccc(OC(F)F)cc1 | inconclusive: 79.4 µM [inhibitor, single point] |  |
| Cc1occc1C(=O)Nc1sccc1C(N)=O | inconclusive: 79.4 µM [inhibitor, single point] |  |
| COc1ccc(-n2c(C)nc3cc(C(=O)NC4CCCCCC4)ccc32)cc1 | inconclusive: 100 µM [inhibitor, single point] |  |
| COC(=O)c1c(NC(=O)c2nc(SCc3ccccc3C)ncc2Cl)sc2c1CCCC2 |  | inactive: 24.2% |
| CC1CCCN(S(=O)(=O)c2ccc(N3CCCCS3(=O)=O)cc2)C1 (centres undefined) |  | inactive: -8.58% |
| Cc1ccc(NS(=O)(=O)c2ccc3[nH]c4c(c3c2)CCCCCC4)cc1 | active: 39.8 µM |  |
| Cc1ccc(NC(=O)c2cc(NC(=O)/C=C\C(=O)O)ccc2N2CCCCC2)cc1 | inconclusive: 79.4 µM [inhibitor, single point] |  |
| N#Cc1ccc(NC2=NS(=O)(=O)c3ccccc32)cc1 |  | inactive: -21.9% |
| CCCCOc1ccc(N=Cc2ccc[nH]2)cc1 | inconclusive: 50.1 µM [inhibitor, partial curve] |  |
| COc1ccc2c(c1)C(=NNc1ccc(C(=O)O)cc1)c1cc(OC)ccc1-2 | active: 39.8 µM |  |
| COc1ccc2c(c1)c(=O)oc1cc(OCC(=O)N3CCC(C)CC3)ccc12 | inconclusive: 79.4 µM [inhibitor, single point] |  |
